Twelve compounds from ChEMBL document CHEMBL5303300, “EUbOPEN Chemogenomics Library - Multiplex” (2023) can be followed below.

One data set relates to U2OS. Description: Multiplex assay against U2OS. Type of data set: toxicity, cell-based. Conditions: human, number of replicates 2. Put shortly: (§1)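 Live cells were stained at seeding with Hoechst33342, BioTracker Green Microtubule Cytoskeleton Dye, MitoTracker Red and Annexin V Alexa Fluor 680, then imaged on a CQ1 microscope at 37°C and 5% CO2 after compound addition. CellPathfinder machine-learning gating split cells into Hoechst high-intensity objects or normal cells. Normal cells were split into healthy, pyknosed or fragmented nuclei, and pyknosed cells into mitotic or apoptotic. Tubulin, mitochondrial-mass and membrane-permeability phenotypes are per cents of healthy-nucleus cells.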

Another data set relates to Fibroblast. Description: Multiplex assay against human fibroblast. Type of data set: toxicity, cell-based. Conditions: number of replicates 2. The method, boiled down:
as §1

[1] abbreviates: 12 h, 1 µM, compound concentration 1 uM.
[2] abbreviates: 12 h, 10 µM, compound concentration 10 uM.
[3] abbreviates: 24 h, 1 µM, compound concentration 1 uM.
[4] abbreviates: 24 h, 10 µM, compound concentration 10 uM.
Where [5] appears, read: 48 h, 1 µM, compound concentration 1 uM.
[6] abbreviates: 48 h, 10 µM, compound concentration 10 uM.

Some entries of the source have several records that differ or are many. This list holds those alone. The source may hold further records. The records of an entry repeat one measurement (runs, samples, wells, individuals or studies).

For the compound `CS(=O)(=O)c1ccc(C(=O)Nc2ccc(F)c(COc3ccc(Br)cc3CN3CC[C@H](O)C3)c2)c(Cl)c1.O=CO`, the “Total Cell Count” value was 50 and 204 with U2OS (setting [1]); 36 and 161 in the data set with U2OS (setting [2]); 59 and 287 with U2OS (setting [3]); 179 and 40 with U2OS (setting [4]); 83 and 503 in the data set with U2OS (setting [5]); 47 and 241 in the data set on U2OS (setting [6]).
With `COc1cc(OC)cc(-c2cc3cnc(N)nc3nc2NC(=O)NC(C)(C)C)c1`, the “Population Tubulin-Different-Phenotype (%)” value was 14, 6, 27, 8% in the data set on Fibroblast (setting [2]); 15, 5, 20, 10% with Fibroblast (setting [4]); 15, 5, 18, 10% in the data set with Fibroblast (setting [6]). Further, the “Population Mitotic Cells (%)” value in the data set with U2OS (setting [1]) is on record as 66, 18, 20, 55%; in the data set with U2OS (setting [2]) it was 9, 66, 52, 0%; in the data set on U2OS (setting [3]) it was 40, 15, 50, 39%; with U2OS (setting [4]), 45, 50, 58, 16%; with U2OS (setting [5]) it was 50, 15, 40, 25%. In addition, the “Total Cell Count” value is 42, 158, 48, 151 in the data set on U2OS (setting [1]); 207, 40, 245, 72 with U2OS (setting [2]); 78, 226, 68, 201 with U2OS (setting [3]); 286, 50, 355, 91 in the data set with U2OS (setting [4]); 129, 517, 101, 409 in the data set with U2OS (setting [5]); 515, 79, 616, 106 in the data set with U2OS (setting [6]). The “Population Apoptotic (%)” value in the data set on U2OS (setting [2]) is reported as 90, 33, 47, 100%. Also, the “Population Fragmented Nuclei (%)” value in the data set with U2OS (setting [2]) is 4% and 25%; in the data set with U2OS (setting [4]) it was 5, 16, 6, 14%; with U2OS (setting [6]), 2, 15, 3, 17%.
For `CN1CCN(C(=O)Cc2ccc(N/C(=C3\C(=O)Nc4cc(Cl)ccc43)c3ccccc3)cc2)CC1`, the “Population Fragmented Nuclei (%)” value in the data set with U2OS (setting [1]) is 35% and 2%; with U2OS (setting [3]), 18% and 2%; with U2OS (setting [5]) it was 14% and 2%. Further, the “Population Mitotic Cells (%)” value with U2OS (setting [1]) was 0% and 45%. The “Total Cell Count” value in the data set on U2OS (setting [1]) was 42 and 191; with U2OS (setting [2]) it was 205 and 31; in the data set with U2OS (setting [3]), 37 and 257; in the data set on U2OS (setting [4]), 32 and 287; in the data set on U2OS (setting [5]), 41 and 554; with U2OS (setting [6]) it was 58 and 550. Moreover, the “Population Apoptotic (%)” value in the data set on U2OS (setting [2]) is 56% and 0%. Further, the “Population Membrane Permeable-Phenotype (%)” value was 1% and 12% in the data set with U2OS (setting [2]); 12% and 1% with U2OS (setting [3]).
Turning to `Fc1cccc(-n2cnc3c(NCc4nc5ccc(F)c(F)c5[nH]4)nc(N4CCOCC4)nc32)c1`, the “Population Fragmented Nuclei (%)” value is 51% and 11% in the data set with Fibroblast (setting [4]); 50% and 10% with U2OS (setting [2]); 42% and 7% with U2OS (setting [4]); 48% and 7% in the data set on U2OS (setting [6]). Also, the “Population Healthy Nuclei (%)” value in the data set with Fibroblast (setting [4]) was 21% and 71%; with U2OS (setting [2]), 8% and 31%; in the data set on U2OS (setting [4]) it was 2% and 16%. In addition, the “Population Membrane Permeable-Phenotype (%)” value is 14% and 3% in the data set with Fibroblast (setting [4]); 0% and 34% in the data set with U2OS (setting [4]). Also, the “Total Cell Count” value with Fibroblast (setting [4]) is 33 and 201; with U2OS (setting [1]) it was 267 and 65; in the data set with U2OS (setting [2]), 36 and 145; in the data set on U2OS (setting [3]), 60 and 280; in the data set with U2OS (setting [4]) it was 40 and 143; in the data set with U2OS (setting [5]) it was 49 and 253. Moreover, the “Total Cell Count” value in the data set with U2OS (setting [6]) was 43 and 140. Moreover, the “Population Apoptotic (%)” value in the data set with U2OS (setting [1]) was 80% and 23%. The “Population Mitotic Cells (%)” value in the data set on U2OS (setting [1]) is 19% and 76%; in the data set on U2OS (setting [3]) it was 36% and 2%. For the same compound, the “Population Mitochondria Different-Phenotype (%)” value in the data set on U2OS (setting [5]) is 0% and 36%.
As to `CS(=O)(=O)c1ccc(C(=O)Nc2cccc(COc3ccc(Br)cc3CNCCO)c2)c(Cl)c1.O=CO`, the “Total Cell Count” value in the data set on U2OS (setting [1]) was 35 and 250; in the data set on U2OS (setting [2]) it was 70 and 215; with U2OS (setting [3]) it was 53 and 351; with U2OS (setting [4]), 70 and 258; with U2OS (setting [5]), 77 and 622; in the data set with U2OS (setting [6]), 78 and 343.
Take `COC(=O)c1ccc2c(c1)NC(=O)/C2=C(\Nc1ccc(-c2nccn2C)cc1)c1ccccc1`: the “Population Fragmented Nuclei (%)” value is 10% and 31% with Fibroblast (setting [3]); 10% and 34% with Fibroblast (setting [5]); 26% and 3% with U2OS (setting [1]); 40% and 6% in the data set with U2OS (setting [2]); 2% and 21% with U2OS (setting [3]); 34% and 5% in the data set with U2OS (setting [4]). Further, the “Population Fragmented Nuclei (%)” value in the data set on U2OS (setting [5]) is 19% and 3%; with U2OS (setting [6]), 31% and 6%. For the same compound, the “Population Apoptotic (%)” value with U2OS (setting [1]) was 0% and 35%. Besides, the “Total Cell Count” value in the data set with U2OS (setting [1]) was 34 and 160; in the data set on U2OS (setting [3]) it was 222 and 52; with U2OS (setting [4]), 52 and 224; in the data set with U2OS (setting [5]), 84 and 421; in the data set with U2OS (setting [6]) it was 56 and 317.
As to `CC(=O)N(CCN(C)C)c1ccc(N/C(=C2\C(=O)Nc3cc(Cl)ccc32)c2ccccc2)cn1`, the “Population Fragmented Nuclei (%)” value in the data set with U2OS (setting [1]) was 3% and 19%. The “Total Cell Count” value in the data set with U2OS (setting [1]) was 249 and 58; with U2OS (setting [2]) it was 42 and 186; with U2OS (setting [3]) it was 306 and 54; with U2OS (setting [4]), 182 and 45; in the data set with U2OS (setting [5]) it was 506 and 86; in the data set with U2OS (setting [6]), 220 and 50.
For the compound `Cn1cc(-c2ccc(N(C(=O)NCc3ccccc3)[C@H]3CC[C@H](Nc4ccc(C#N)cn4)CC3)cc2)ccc1=O`, the “Population Fragmented Nuclei (%)” value with U2OS (setting [1]) was 36% and 0%; in the data set with U2OS (setting [3]) it was 40% and 2%; in the data set with U2OS (setting [5]) it was 23% and 2%. Besides, the “Total Cell Count” value is 41 and 182 in the data set on U2OS (setting [1]); 36 and 241 with U2OS (setting [2]); 47 and 263 in the data set with U2OS (setting [3]); 35 and 239 in the data set with U2OS (setting [4]); 63 and 467 in the data set on U2OS (setting [5]); 42 and 214 in the data set on U2OS (setting [6]). Further, the “Population Mitotic Cells (%)” value in the data set with U2OS (setting [2]) was 6% and 40%.
In the case of `O=C1CCCN1CCNc1nc(Nc2ccc(Cl)c(Cl)c2)ncc1C(F)(F)F`, in the data set with U2OS (setting [1]), the “Population Pyknosed Nuclei (%)” value is 23% and 5%. In addition, the “Total Cell Count” value in the data set with U2OS (setting [1]) is 17 and 289; in the data set with U2OS (setting [2]), 19 and 188; in the data set on U2OS (setting [3]), 31 and 422; in the data set on U2OS (setting [4]), 232 and 40; in the data set with U2OS (setting [5]), 58 and 814; in the data set on U2OS (setting [6]) it was 309 and 47. For the same compound, the “Population Fragmented Nuclei (%)” value was 21% and 5% with U2OS (setting [2]); 3% and 17% with U2OS (setting [4]). For the same compound, the “Population Mitotic Cells (%)” value with U2OS (setting [2]) was 0% and 42%; in the data set on U2OS (setting [3]), 0% and 26%.
Consider `CCc1ncnc(N2CCN(C(C)=O)CC2)c1C#Cc1ccc(N)nc1.Cl.Cl`, for which, in the data set on U2OS (setting [1]), the “Population Mitotic Cells (%)” value is 0% and 29%. The “Total Cell Count” value was 52 and 291 in the data set with U2OS (setting [1]); 66 and 209 in the data set with U2OS (setting [2]); 62 and 358 with U2OS (setting [3]); 62 and 254 in the data set on U2OS (setting [4]); 73 and 417 with U2OS (setting [5]); 59 and 233 with U2OS (setting [6]). In the data set with U2OS (setting [5]), the “Population Fragmented Nuclei (%)” value was 15% and 3%.
Turning to `Cc1cc(-c2cnc(N)c3c(-c4ccc5scnc5c4)csc23)n(C)n1`, the “Population Fragmented Nuclei (%)” value in the data set on U2OS (setting [2]) was 19% and 5%; in the data set on U2OS (setting [4]), 18% and 3%. Moreover, the “Total Cell Count” value was 62 and 230 in the data set on U2OS (setting [2]); 56 and 206 with U2OS (setting [3]); 84 and 293 in the data set on U2OS (setting [4]); 102 and 435 with U2OS (setting [5]); 99 and 417 with U2OS (setting [6]).
Turning to `CN(C)C/C=C/C(=O)Nc1cc2c(Nc3ccc(F)c(Cl)c3)ncnc2cc1OC[C@@H]1CCCO1`, the “Population Fragmented Nuclei (%)” value was 37% and 6% in the data set with U2OS (setting [1]); 26% and 7% in the data set with U2OS (setting [2]); 36% and 4% with U2OS (setting [3]); 36% and 6% in the data set with U2OS (setting [4]); 39% and 4% with U2OS (setting [5]); 46% and 10% with U2OS (setting [6]). The “Total Cell Count” value is 27 and 214 with U2OS (setting [1]); 26 and 259 in the data set on U2OS (setting [2]); 33 and 236 with U2OS (setting [3]); 30 and 251 with U2OS (setting [4]); 28 and 327 in the data set with U2OS (setting [5]); 39 and 238 in the data set with U2OS (setting [6]). Further, the “Population Healthy Nuclei (%)” value was 16% and 55% with U2OS (setting [4]); 10% and 33% with U2OS (setting [6]).
